# Measurements: PMC4336329 (PLoS ONE, 2015)
# Among all 310,000 compounds or so, about 2,200 (0.71%) showed an effect of 50% or more. The effect is printed as a negative number. This is one part of the list.
# Molecular target: human ether-à-go-go-related gene (hERG) potassium channel (human, UniProt Q12809)
# Assay: primary screen, population patch clamp on CHO cells stably expressing hERG
# Sequence of human ether-à-go-go-related gene (hERG) potassium channel (Q12809 whole entry, looked up): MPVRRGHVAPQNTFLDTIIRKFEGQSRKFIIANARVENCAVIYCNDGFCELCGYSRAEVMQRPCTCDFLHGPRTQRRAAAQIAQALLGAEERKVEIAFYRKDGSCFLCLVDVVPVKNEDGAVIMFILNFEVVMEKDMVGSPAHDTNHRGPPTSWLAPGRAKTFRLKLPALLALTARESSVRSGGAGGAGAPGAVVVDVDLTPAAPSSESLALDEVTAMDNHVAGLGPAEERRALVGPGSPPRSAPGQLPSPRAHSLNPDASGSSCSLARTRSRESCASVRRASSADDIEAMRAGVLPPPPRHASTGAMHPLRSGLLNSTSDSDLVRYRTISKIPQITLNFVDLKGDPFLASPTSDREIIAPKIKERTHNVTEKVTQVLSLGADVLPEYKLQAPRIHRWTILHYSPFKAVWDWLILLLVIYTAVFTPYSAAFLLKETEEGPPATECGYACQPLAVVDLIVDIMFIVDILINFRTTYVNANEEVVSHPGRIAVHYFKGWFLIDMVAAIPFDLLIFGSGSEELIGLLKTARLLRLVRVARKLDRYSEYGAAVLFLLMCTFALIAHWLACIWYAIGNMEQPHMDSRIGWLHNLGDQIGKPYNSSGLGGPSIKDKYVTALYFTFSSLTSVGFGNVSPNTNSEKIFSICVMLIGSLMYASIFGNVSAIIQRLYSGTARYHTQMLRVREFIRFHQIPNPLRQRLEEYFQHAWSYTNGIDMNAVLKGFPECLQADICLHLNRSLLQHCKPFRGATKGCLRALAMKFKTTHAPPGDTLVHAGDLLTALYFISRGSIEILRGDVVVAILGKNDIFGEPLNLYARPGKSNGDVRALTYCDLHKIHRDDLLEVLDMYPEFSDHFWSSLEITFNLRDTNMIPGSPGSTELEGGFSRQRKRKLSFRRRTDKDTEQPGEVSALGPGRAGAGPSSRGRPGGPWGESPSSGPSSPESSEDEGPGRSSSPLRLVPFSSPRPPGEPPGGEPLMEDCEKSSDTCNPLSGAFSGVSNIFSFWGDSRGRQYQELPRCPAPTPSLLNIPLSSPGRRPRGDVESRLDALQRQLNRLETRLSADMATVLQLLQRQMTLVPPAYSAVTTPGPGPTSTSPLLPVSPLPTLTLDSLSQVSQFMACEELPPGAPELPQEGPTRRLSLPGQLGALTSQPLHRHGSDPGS
row,SMILES,"hERG current change (%, negative = inhibition) at 1uM"
1,CCC(C)c1ccccc1NC(=O)C(C)OC(=O)CN1C(=O)NC(C)(C)C1=O (stereo not shown),7.31%
2,COc1cc(Nc2ccc(S(=O)(=O)N3CCN(C)CC3)cc2[N+](=O)[O-])cc(OC)c1,9.37%
3,CCOC(=O)c1cc(C(=O)c2cccs2)n2ccc(C(C)=O)cc12,15%
4,O=C(Nc1ccccc1C(=O)N1CCCC1)c1ccccc1,7.18%
5,CC(=O)OCC(=O)[C@@]1(O)CC[C@H]2[C@@H]3CCC4=CC(=O)CC[C@]4(C)[C@H]3[C@@H](O)C[C@@]21C,9.06%
6,CC(=O)c1c(COC(=O)c2ccc(Cl)cc2)nc2ccccc2[n+]1[O-],9.84%
7,COC(=O)C1=C(C)N(CC2CC2)C(=O)N[C@H]1c1ccccc1,13.8%
8,COc1ccc(NC(=O)CSc2nnc(Cn3nnc4ccccc43)n2C)cc1,6.2%
9,CCc1ccccc1N(C)S(=O)(=O)c1ccc(-c2cc(C)no2)s1,16%
10,COc1ccc(Nc2nnc(-c3ccncc3)s2)cc1Cl,13.9%
11,COC(=O)Cn1cnc2c(nnn2-c2cccc(OC)c2)c1=O,13%
12,CN1CCN(c2ccccc2NC(=O)Cn2ncc3c([nH]c4ccccc43)c2=O)CC1,-0.453%
13,COc1ccc(C(=O)N/C(=C\c2cccs2)C(=O)N2CCN(C)CC2)cc1OC,-33.9%
14,Nc1nnc(SCC(=O)OCC(=O)c2ccccc2)s1,5.25%
15,CCCNc1c(N)c(=O)oc2ccccc12,-2.56%
16,Cc1nonc1OCCNc1ccc([N+](=O)[O-])cc1,-17.1%
17,CN(CC(=O)Nc1ccc(N2CCOCC2)cc1)C(=O)CSc1ccc(Br)cc1,9.94%
18,COCCOc1cnn(-c2cc(Oc3ccc(C)cc3)ncn2)c(=O)c1Cl,7.88%
19,CCN(CC)CCNC(=O)c1ccc(NC(=O)c2ccc(F)cc2)cc1,2.19%
20,CCOC(=O)c1ccc(NC(=O)c2ccc(C)c(S(=O)(=O)N3CCOCC3)c2)cc1,1.28%
21,C1COCCO1.Cc1cc(C)c2nc(Nc3nc(-c4ccccc4)cc(=O)[nH]3)nc(C)c2c1,7.45%
22,Cc1ccc(S(=O)(=O)NCC2CCCO2)cc1 (stereo not shown),12.3%

row,SMILES,"hERG current change (%, negative = inhibition) at 1uM"
1,Brc1cc2c(cc1-c1nc3ccccc3s1)OCO2,12.9%
2,Cc1cc(NC(=O)CCC(=O)N(c2ccccc2)C(C(=O)NC2CCCC2)c2ccccc2F)no1 (stereo not shown),6.52%
3,COc1ccc(CCC(=O)Nc2cccc(Cl)c2)cc1,2.87%
4,CCCCNC(=O)N1CCN(C(=O)C2CCCO2)CC1 (stereo not shown),9.05%
5,C=CCNC(=O)N1c2ccccc2Sc2ccccc21,-3.91%
6,COc1ccc(OC)c(CN2CCC(C(=O)N3CCOCC3)CC2)c1.O=C(O)C(=O)O,15%
7,Cl.O=C(OCCN1CCOCC1)c1cccc(F)c1,14.5%
8,COc1ccc(NC(=O)c2ccco2)c([N+](=O)[O-])c1,9.74%
9,C=CCNC(=S)N1CCC(C(=O)c2ccc3c(c2)OCCO3)CC1,-3.19%
10,Cn1cc(C(=O)c2ccc(Cl)cc2Cl)cc1C(=O)NN,11.4%
11,CCCCN1C(=O)C(CC(=O)NCC)SC1=Nc1ccccc1 (stereo not shown),4.72%
12,COc1ccccc1C(=O)N1CCN(C2CCN(Cc3ccccc3)CC2)CC1,0.255%
13,Cc1ccc(S(=O)(=O)Oc2ccccc2/C=N/NC(=O)c2c(Cl)cnn2C)cc1,8.85%
14,O=C(NCc1ccccc1)/C(=C\c1ccc([N+](=O)[O-])cc1)NC(=O)c1ccco1,-19.6%
15,COc1ccc2[nH]c(=S)cc(C)c2c1,17.4%
16,Clc1ccc(-c2nc(NCCN3CCOCC3)c3ccccc3n2)cc1,-16.9%
17,CCCOc1ccc(/C=C/C(=O)Nc2ccc([N+](=O)[O-])cc2C)cc1OC,5.35%
18,COC(=O)[C@@H]1CC[C@H](C)[C@@H](c2ccc(C)cc2)N1C(=O)c1ccc(/C=N/O[C@@H](C)c2cn([C@H](CO)Cc3ccccc3)nn2)cc1,6.35%
19,CCN(CC)CCN(Cc1cc2cc3c(cc2[nH]c1=O)OCO3)C(=S)NCC(C)C,-2.18%
20,O=C1NCCC/C1=N/Nc1cc(F)ccc1F,0.298%
21,Cc1nc(SCC(=O)NC2CCCCC2C)c(C#N)c(C)c1C (stereo not shown),5.68%
22,CCC1CCCCN1C(=S)NC(=O)c1cc(S(=O)(=O)N2CCOCC2)ccc1C (stereo not shown),6.56%

row,SMILES,"hERG current change (%, negative = inhibition) at 1uM"
1,Cc1ccc(S(=O)(=O)N2CCN(S(=O)(=O)N3CCCCC3)CC2)cc1,13.4%
2,CCOc1ccc(N(CC(=O)NC2CCCCC2)C(=O)CCC(=O)Nc2nc(C)cs2)cc1,-20.4%
3,c1ccc(SCCc2ccncc2)cc1,7.49%
4,N#CC1(C#N)COC23CCCCC2C1(C#N)C(=N)O3 (stereo not shown),0.171%
5,CCNC(=O)NC(=O)COc1ccccc1C#N,17.9%
6,COc1ccc(NC(=O)c2ccc(-c3ccc([N+](=O)[O-])cc3)o2)cc1,2.85%
7,COc1ccc(CCNC(=O)c2cc(-c3ccccc3O)n[nH]2)cc1OC,7.83%
8,CCOc1ccccc1NC(=O)CCn1c(=O)oc2ccccc21,-0.089%
9,Fc1ccc(-c2nnc(SCc3ncc(-c4ccccc4)o3)n2CC2CCCO2)cc1 (stereo not shown),-2.66%
10,Cc1ccc(OCC(=O)N/N=C/c2ccncc2)cc1,-7.08%
11,O=C(NC(=O)c1cc(OCC(F)(F)F)ccc1OCC(F)(F)F)Nc1ccccc1,12.4%
12,COC(=O)CCCC(=O)NC1CCCN(C2Cc3ccccc3C2)C1 (stereo not shown),4.05%
13,CS(=O)(=O)NCCSCc1ccc(Cl)cc1,8.46%
14,CCC(C)[C@H]1CNC(=S)N1CCC12CC3CC(CC(C3)C1)C2 (stereo partly shown),12.1%
15,CC1Cc2ccccc2N1S(=O)(=O)c1cccc(C(=O)NCc2ccccn2)c1 (stereo not shown),-29.5%
16,CNC(=O)c1c(NC(=O)c2ccc(N3C(=O)CCC3=O)cc2)sc2c1CCCC2,11.7%
17,COc1ccc(-c2[nH]ncc2CN(C)CCCN2CCOCC2)cc1F,12%
18,CCN(CC)C(=O)Cn1cc(C(=O)C(=O)N2CCc3ccccc32)c2ccccc21,4.22%
19,O=S(=O)(c1ccc2ccccc2c1)N1CCN(C(=S)Nc2ccc(F)c(Cl)c2)CC1,9.17%
20,COc1ccc(S(=O)(=O)N2CCN(C(=O)c3ccc4ccccc4n3)CC2)cc1,4.65%
21,CCN(CC(=O)Nc1cc(Cl)ccc1C)C(=O)CCc1nc2ccccc2c(=O)[nH]1,-32.3%
22,CCc1nonc1NC(=O)c1oc2cc(Br)ccc2c1C,11%

row,SMILES,"hERG current change (%, negative = inhibition) at 1uM"
1,N/C(=N\OC(=O)COc1ccccc1)c1cccnc1,6.23%
2,O=C(Nc1nc(-c2cccs2)c(-c2cccs2)s1)C1(c2ccccc2)CC1,1.99%
3,O=C(Nc1cccc(C(F)(F)F)c1)C1CCN(S(=O)(=O)c2ccc(N3CCCC3=O)cc2)CC1,17.9%
4,COc1cc(C=O)ccc1OCCOc1ccccc1[N+](=O)[O-],1.46%
5,CC1(C)NC(=O)N(CCCOc2ccc(Br)cc2Cl)C1=O,6.81%
6,COc1ccc(OC)c(C2CC(=O)Nc3cc(OC)c(OC)c(OC)c32)c1 (stereo not shown),11.8%
7,COCCCn1c(=NC(C)=O)c(C#N)cc2c(=O)n3cccc(C)c3nc21,-7.03%
8,Cc1cc(OCc2cc(C(=O)N(C)CCc3cnn(C)c3)no2)cc(C)c1Cl,3.2%
9,CCOC(=O)C1=C(C)OC(N)=C(C#N)C1c1cccc(C)c1 (stereo not shown),9.21%
10,CCOc1cc(CNCCCN2CCOCC2)cc(Br)c1OCc1ccccc1Cl.Cl,7.29%
11,Cc1nn(C)cc1/C=N/O,-4.44%
12,O=C(O)C(=O)O.c1ccc(COc2cccc(CN3CCc4ccccc4C3)c2)cc1,15.4%
13,Cc1cc(C(=O)NCc2cccnc2)cs1,3.2%
14,O=C(CCC(=O)N1CCCCCC1)Nc1ccc([N+](=O)[O-])cc1,3.73%
15,COc1cc(OC)c2ccc(=O)oc2c1C(CC(=O)N1CCCC1)c1ccc2c(c1)OCO2 (stereo not shown),-1.4%
16,CN(c1ccccc1)S(=O)(=O)c1cccc(NC(=O)CSc2nncn2C)c1,8.81%
17,COc1cc2c(cc1OC)C(c1ccc(O)cc1)NCC2 (stereo not shown),18.4%
18,CCOC(=O)C(C)Sc1nc(C2CC2)cc(C(F)(F)F)c1C#N (stereo not shown),7.62%
19,O=C(CN1CC(c2ccccc2)CC1=O)Nc1ccc2c(c1)OCO2 (stereo not shown),4.85%
20,Cc1ccc(N2CCN(C(=O)c3nn(C)c4c3CS(=O)(=O)c3ccccc3-4)CC2)c(C)c1,14.9%
21,CCCCN(CCCC)C(=O)CSc1nnc(-c2cc(OC)c(OC)c(OC)c2)o1,4.57%
22,Cc1nc2c(-c3ccccc3)c(C)nn2c(C)c1CCC(=O)NCc1ccco1,-20%
